# The supplement of paper PMC11417369
# The other results are listed elsewhere or left out.
# System: PfHDP1 homeodomain (GST-tagged)
# Assay: gcPBM binding intensity (ln(normalized median fluorescence intensity)); higher = stronger DNA binding
# How it was run: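 Probes on an Agilent 4 × 180k array were primer-extended, double-stranded and 36 bp long, taken from intergenic genomic regions, with negative controls added. GST-tagged P. falciparum DNA-binding domains from E. coli, about 25 μg on average, were applied to the array for 1 h in 1× PBS containing 1% milk, 0.2 mg/ml BSA, 0.5% salmon testes DNA and 0.03% Triton X-100. Binding intensity, obtained after Alexa488 anti-GST antibody detection and a 488 nm scan, is the highest Masliner-normalised natural-log median intensity across replicate spots of either probe orientation.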
row,Sequence,gcPBM binding intensity (ln)
1,AGTTCGAATATATAAAGTACATAATTATATATTTGC [XGTACX_site2604],6.15
2,TCTATTAACTGATGTGCATGTTATAACCTAGAAGTA [TGCATGCA_site359],8.13
3,TAATATCATTTAGACACACACTCTTACAATATGTAA [CACACA_site5434],6.22
4,TGGATTCGTATATGTAGTACTATTTATATGTGATTT [XGTACX_site1581],6.43
5,TATATATATATATGTATATATGTATATCTATATTTA [CACACA_negctrl_site131],9.15
6,TCTTATCCTACTTTTATTTTTACTTTTTTTTCTTAT [CACACA_negctrl_site111],6.75
7,TAAATTGAGTATATTACACACATATAAATATATTAT [CACACA_site4027],6.57
8,ATATATATATATATATGTACATAATTAATAATTAGA [XGTACX_site5672],9.37
9,TTTTAATTGTTTATTTGTACATATGTTTAATTATAT [XGTACX_site571],6.79
10,ATTTATACAAAGCTTCGTACATAATGTATTCTTTTT [XGTACX_site2166],6.65
11,TTATTAAAAATGTATTGTACAAATTTATTAGTAAAT [XGTACX_site4799],6.44
12,TTATAATCTTTTGGTTCTATAGAATATCAAAAAATA [CACACA_negctrl_site1149],6.13
13,TTTTTTGCTTGGGTGAGAAAAAATAAAATAAAGGAA [TGCATGCA_negctrl_site139],6.85
14,TTTTTAAAAAAATTGATTCTTTTTCTTTTTTTTCTT [XGTACX_negctrl_site127],5.73
15,TATTATTGTCATTTTTTTTTTTTTTTTTTCTATTTC [XGTACX_negctrl_site114],5.85
16,AAAAAATAAAAGGAAAAAAAAAAAAAAAAAAAAAAT [CACACA_negctrl_site635],5.93
17,TAGACTCCCAGACACACACACACACCCATATAATAT [CACACA_site593],6.78
18,TATTATTATTGTTGATGTACATTTAATATAATATAT [XGTACX_site4482],6.44
19,TTTTTTTTTTTTGGTGCATGCACATTTTGTTTTTTT [TGCATGCA_site570],10
20,TTTATATTTTAAAAAATAATATTATGTATTTTTAAA [TGCATGCA_negctrl_site507],6.01
21,GTACTTATTAAATGTGCATGTTGATATATAAATGTA [TGCATGCA_site902],8.83
22,TTTAATATATATATGTGTACATATAAATTATATATA [XGTACX_site8511],6.22

row,Sequence,gcPBM binding intensity (ln)
1,ATATACATAAAAATATGTACATATAAAATATATACA [XGTACX_site2394],6.32
2,ATATAATAAACGTGTACACAATTAAATTATTATATA [CACACA_site5017],6.75
3,TATATTTATATATGTTGTACTCTCCAATAATATTCC [XGTACX_site4438],6.5
4,TTTATTAATGGACACACACACACACCCAAAATAAAA [CACACA_site4294],7.21
5,TCATATAAAACATGCACACATATGTACTCTTATAAA [CACACA_site3748],8.79
6,TGAATAAAAAAACCTAGTACTTAAATAAGTATATTT [XGTACX_site7690],5.5
7,ATTAAATGATCAAGGTGTACATTAACAAGAACTATA [XGTACX_site7022],6.73
8,TATATATTTATATTTACACACAGTTACTATGTAGAT [CACACA_site3292],6.52
9,TAAAAAAAATAGAAACGTACATAAAAAATAAATAAT [XGTACX_site5796],6.95
10,TATATATATACATACGTACACACAAATATTAAAATA [CACACA_site1950],7.45
11,TTTTGCGAAAAAAGGTGTACTGTAAATATATTGAGG [XGTACX_site8941],6.83
12,AGCACCCACCAACACACACACACACCCACCCACCGA [CACACA_site368],6.51
13,TTTTTTTTGATTTGTTTGCACTTATTTCCACAATAA,8.46
14,TTAATATGTTTAACCATTTTACATAAATTGATTTGT [CACACA_negctrl_site1100],6.3
15,TTTTTTTTTAATTACATAAAATAAAAATATTTCTAT [CACACA_negctrl_site584],6.06
16,TACGTAAATTTTAATACACACTATAGGATATTCTGC [CACACA_site5418],6.52
17,AAATAAATAAATATACGTACATATATATAATATATA [XGTACX_site5124],6.59
18,TTGTATCTTCATTTTATCAGAAAAAAAAAAAAAAAT [CACACA_negctrl_site775],6.11
19,ATTTTATTTATATACACACACATATATATATTATAT [CACACA_site822],7.09
20,ATATATATATATAGGGGTACTTAAATTTTACTAACC [XGTACX_site1832],9.11
21,AATAAATAAATAAATTAATATATATATATATATAGA [CACACA_negctrl_site1661],6.19
22,AAAGGGTTACAAGAGGAACACACAAAAAAATAAATA [CACACA_site8406],6.75
